# Where “and” joins values, the source holds several entries; their conditions need not be identical. Identical values can stand only once. Inconclusive means that the source gave no clear call. Such entries were picked first, then a sample of the others. For part of these data: Potencies of inconclusive entries are doubtful fits and often do not repeat. Some compounds were tested as several samples or in several runs, with calls that do not always agree. Calls of active or inactive are those of the source. Unless noted, the call rests on the fitted dose curve; in most records, active means well fitted curve in the direction sought with a large enough effect in the repeat runs; inconclusive means weak or mixed curves; inactive means no such curve, though single readings can be large; an effect the other way counts as inactive or inconclusive.
# Legend:
# [1] = target: Progesterone receptor (Homo sapiens) (UniProt P06401); test: qHTS assay to identify small molecule antagonists of the progesterone receptor (PR) signaling pathway (AID 1346795; active means well fitted inhibition curve with a large enough effect in the signal ratio in the repeat runs, not every such curve was filed as active; inconclusive means weak or mixed curves; the % refers to the signal ratio; further: potency means the concentration at half of the fitted maximal effect; on activity change, negative = inhibition: on the % scale 0 is the no-effect control and ±100 the full control effect); settings: PR-UAS-bla HEK293T, beta-lactamase FRET ratio, 16 h; activity change, negative = inhibition: at 92.4 µM (top of the series) unless noted
# Outline: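 PR-UAS-bla HEK293T cells with beta-lactamase reporter under UAS control, in 2% charcoal-stripped FBS, treated with compounds plus 1 nM promegestone (R5020, final) for 16 hr at 37C. Read-out: FRET beta-lactamase substrate fluorescence after 2 hr at room temperature.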
# [2] = qHTS assay to identify small molecule antagonists of the progesterone receptor (PR) signaling pathway - cell viability counter screen (AID 1346798); further: potency means the concentration at half of the fitted maximal effect; nearly all actives have a fitted effect of over 50% in size
# Outline: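 PR-UAS-bla HEK293T cells, 3,000/well in 2% charcoal-stripped FBS medium, dosed with compounds plus R5020 agonist and incubated 16 h at 37C. Viability then measured in the same wells by CellTiter-Glo luminescence after 30 min at RT.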
# [3] = qHTS assay to identify small molecule agonists of the progesterone receptor (PR) signaling pathway - cell viability counter screen (AID 1346799; calls by dose curve; further: potency means the concentration at half of the fitted maximal effect; nearly all actives have a fitted effect of over 45% in size)
# Outline: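 Counter screen in the PR-UAS-bla HEK293T wells (2% charcoal-stripped FBS, 16 h compound exposure at 37 C) after the bla read. CellTiter-Glo added, 30 min at room temperature, luminescence read as cell viability.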
# [4] = target: Nuclear receptor subfamily 1 group I member 2 (Rattus norvegicus) (UniProt Q9R1A7); test: Rat pregnane X receptor (rPXR) activation by small molecules, qHTS assay (AID 1346983); settings: rPXR luciferase reporter cells, One-Glo luminescence, 24 h; max activation: stronger effect = higher value; further: nearly all actives have a fitted effect of over 20% in size; further: potency means the concentration at half of the fitted maximal effect; on max activation: on the % scale 0 is the no-effect control and ±100 the full control effect
# Outline: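 Cell-based rPXR luciferase reporter assay, 2,000 cells per well, rested 5hr at 37 C before compound addition in DMSO, then 24 hr at 37 C. One-Glo reagent was added and luminescence read after 30 min at room temperature.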
# [5] = target: Cytochrome P450 2D6 (Homo sapiens) (UniProt P10635); test: Cytochrome P450 Family 2 Subfamily D Member 6 (CYP2D6) small molecule antagonists: luciferase reporter qHTS assay (AID 1671196); further: potency means the concentration at half of the fitted maximal effect; nearly all actives have a fitted effect of over 50% in size
# Outline: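 Chemicals tested for interference with CYP2D6 activity; proluciferin substrate, NADPH regeneration, 1 h at room temperature, luminescent detection.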
# [6] = qHTS assay to identify small molecule agonists of the TGF-beta/Smad signaling pathway (AID 1346859; active means well fitted activation curve with a large enough effect in the signal ratio in the repeat runs, not every such curve was filed as active; inconclusive means weak or mixed curves; the % refers to the signal ratio; further: potency means the concentration at half of the fitted maximal effect; on activation: on the % scale 0 is the no-effect control and ±100 the full control effect); settings: SBE-bla HEK293T, TGF-beta/Smad beta-lactamase reporter, 5 h; activation: at 76.8 µM (top of the series)
# Outline: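 SBE-bla HEK293T cells plated overnight, then compound exposure for 5 h at 37 C. Beta-lactamase reporter read with LiveBLAzer B/G FRET substrate after 2 h at room temperature, fluorescence at 405 nm excitation, 460/530 nm emission.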
# [7] = qHTS assay to identify small molecule antagonists of the TGF-beta/Smad signaling pathway (AID 1346924; active means well fitted inhibition curve with a large enough effect in the signal ratio in the repeat runs, not every such curve was filed as active; inconclusive means weak or mixed curves; the % refers to the signal ratio; further: potency means the concentration at half of the fitted maximal effect); settings: SBE-bla HEK293T, TGF-beta/Smad reporter, beta-lactamase ratio
# Outline: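 Read-out was FRET-substrate fluorescence (405 nm excitation; 460 and 530 nm emission) after 2 h at room temperature. Before that, cells carrying a Smad-binding-element beta-lactamase reporter in HEK 293T had been stimulated 5 h at 37 C with TGF-beta1 (0.25 ng/mL addition solution) in the presence of test compound.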
# [8] = Human pregnane X receptor (PXR) small molecule agonists, qHTS cell viability counter screen (AID 1346977); further: potency means the concentration at half of the fitted maximal effect; nearly all actives have a fitted effect of over 50% in size
# Outline: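 PXR-Luc HepG2 cells (2,000/well, 5% charcoal-stripped FBS) preincubated 5 hr, then exposed to compounds 24 hr at 37 C. Viability read in the same wells by CellTiter-Fluor fluorescence, reagent added at 23 hr, 1 hr incubation.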
# [9] = Caspase-3/7 induction in HepG2 cells by small molecules, qHTS assay (AID 1346978); further: potency means the concentration at half of the fitted maximal effect; nearly all actives have a fitted effect of over 15% in size
# Outline: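 Wild-type HepG2 cells (2,000/well) were settled 5 h at 37 C, 5% CO2, then exposed to compounds in DMSO for 17 h. Caspase-3/7 activity was read by luminescence 30 min after adding Caspase-Glo 3/7 reagent at room temperature.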
# [10] = Caspase-3/7 induction in HepG2 cells by small molecules, qHTS cell viability counter screen (AID 1346981); further: nearly all actives have a fitted effect of over 30% in size; further: potency means the concentration at half of the fitted maximal effect
# Outline: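 Treatment of HepG2 cells with DMSO-delivered compounds ran 16 hr at 37 C following a 5-hr pre-incubation of 2,000 cells/well. CellTiter-Fluor fluorescence, read after 1 hr, served as the viability measure in a qHTS format.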
# [11] = target: Cytochrome P450 2C9 (Homo sapiens) (UniProt P11712); test: Cytochrome P450 Family 2 Subfamily C Member 9 (CYP2C9) small molecule antagonists: luciferase reporter qHTS assay (AID 1671198); further: nearly all actives have a fitted effect of over 50% in size; further: potency means the concentration at half of the fitted maximal effect
# Outline: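 CYP2C9 activity was measured with a P450-Glo proluciferin substrate. Enzyme–substrate mix was held with compound for 10 min at room temperature, then NADPH regeneration solution was added for 1 h at 37C. Luciferin product was read as luminescence.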
# [12] = target: Nuclear receptor subfamily 1 group I member 2 (Homo sapiens) (UniProt O75469); test: Human pregnane X receptor (PXR) small molecule agonists, qHTS assay (AID 1346982); further: nearly all actives have a fitted effect of over 35% in size; further: potency means the concentration at half of the fitted maximal effect; on activation: on the % scale 0 is the no-effect control and ±100 the full control effect
# Outline: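 Stable HepG2 line reporting PXR-mediated CYP3A4 expression via luciferase. Treatment: 24 hr with compounds in DMSO at 37 C. Detection: ONE-Glo luminescence.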
# [13] = target: Cytochrome P450 2C19 (Homo sapiens) (UniProt P33261); test: Cytochrome P450 Family 2 Subfamily C Member 19 (CYP2C19) small molecule antagonists: luciferase reporter qHTS assay (AID 1671197); further: potency means the concentration at half of the fitted maximal effect; nearly all actives have a fitted effect of over 65% in size
# Outline: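 Compounds were tested on CYP2C19 activity via proluciferin conversion to luciferin. The 37C, 1 h reaction followed NADPH addition; detection reagent stopped it.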
# [14] = Caspase-3/7 induction in CHO-K1 cells by small molecules, qHTS assay (AID 1346980); further: on the % scale 0 is the no-effect control and ±100 the full control effect; nearly all actives have a fitted effect of over 15% in size
# Outline: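 Wild-type cells were seeded at 1,500 per well and settled 5 hr at 37 C, 5% CO2, then exposed to DMSO-dissolved compounds for 17 hr. Caspase-Glo 3/7 reagent was added, and luminescence was read after 30min at room temperature.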
# [15] = qHTS assay to identify small molecule antagonists of the TGF-beta/Smad signaling pathway - cell viability counter screen (AID 1346824)
# Outline: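 SBE-bla HEK 293T cells were plated overnight at 37 C, then given compounds in DMSO plus TGF-beta1 (added as 0.25 ng/mL solution) for 5 hr. After the bla read, CellTiter-Glo was added to the same wells and luminescence read after 30 min at room temperature.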
# [16] = activity, negative = inhibition: at 76.8 µM (top of the series) unless noted
# Tags describe the fitted curve by direction and shape or compound fluorescence and quenching.
# Chain of UniProt Q9R1A7 (Q9R1A7 whole entry, looked up): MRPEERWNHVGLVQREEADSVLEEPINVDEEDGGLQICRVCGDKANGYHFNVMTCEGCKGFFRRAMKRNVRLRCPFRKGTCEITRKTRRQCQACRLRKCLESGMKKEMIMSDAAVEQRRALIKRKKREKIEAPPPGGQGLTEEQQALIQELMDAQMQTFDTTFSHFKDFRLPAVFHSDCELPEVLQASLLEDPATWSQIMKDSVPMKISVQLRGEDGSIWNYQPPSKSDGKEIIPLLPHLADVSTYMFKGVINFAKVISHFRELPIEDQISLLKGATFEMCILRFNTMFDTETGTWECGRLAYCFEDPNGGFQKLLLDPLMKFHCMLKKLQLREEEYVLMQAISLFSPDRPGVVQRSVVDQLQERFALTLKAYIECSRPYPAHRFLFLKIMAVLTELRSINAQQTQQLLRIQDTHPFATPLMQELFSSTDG
# Chain of UniProt P06401 (P06401 whole entry, looked up): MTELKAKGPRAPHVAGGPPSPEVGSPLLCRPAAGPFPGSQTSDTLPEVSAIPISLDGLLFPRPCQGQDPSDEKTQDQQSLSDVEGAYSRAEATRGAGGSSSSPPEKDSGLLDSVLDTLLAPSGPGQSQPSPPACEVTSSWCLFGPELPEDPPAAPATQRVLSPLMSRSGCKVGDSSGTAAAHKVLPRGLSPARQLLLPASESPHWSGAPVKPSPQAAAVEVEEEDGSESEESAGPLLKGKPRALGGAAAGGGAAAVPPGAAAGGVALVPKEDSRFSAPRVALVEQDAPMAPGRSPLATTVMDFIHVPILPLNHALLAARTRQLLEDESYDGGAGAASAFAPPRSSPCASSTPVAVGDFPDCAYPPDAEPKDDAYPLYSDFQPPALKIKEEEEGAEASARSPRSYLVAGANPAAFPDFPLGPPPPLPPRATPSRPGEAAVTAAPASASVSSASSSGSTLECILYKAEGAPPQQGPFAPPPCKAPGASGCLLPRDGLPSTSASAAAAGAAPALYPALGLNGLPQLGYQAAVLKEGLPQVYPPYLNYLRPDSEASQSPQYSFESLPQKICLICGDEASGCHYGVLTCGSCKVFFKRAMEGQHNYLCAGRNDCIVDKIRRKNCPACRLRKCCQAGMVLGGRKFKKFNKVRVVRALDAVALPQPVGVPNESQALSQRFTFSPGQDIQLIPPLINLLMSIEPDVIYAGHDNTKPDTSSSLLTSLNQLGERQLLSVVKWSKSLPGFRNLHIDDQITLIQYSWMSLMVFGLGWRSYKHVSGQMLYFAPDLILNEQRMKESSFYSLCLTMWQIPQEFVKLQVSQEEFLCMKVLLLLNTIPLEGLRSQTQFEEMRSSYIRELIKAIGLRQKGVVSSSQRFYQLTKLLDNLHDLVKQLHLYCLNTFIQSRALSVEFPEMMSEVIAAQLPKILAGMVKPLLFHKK
# Chain of UniProt P11712 (P11712 whole entry, looked up): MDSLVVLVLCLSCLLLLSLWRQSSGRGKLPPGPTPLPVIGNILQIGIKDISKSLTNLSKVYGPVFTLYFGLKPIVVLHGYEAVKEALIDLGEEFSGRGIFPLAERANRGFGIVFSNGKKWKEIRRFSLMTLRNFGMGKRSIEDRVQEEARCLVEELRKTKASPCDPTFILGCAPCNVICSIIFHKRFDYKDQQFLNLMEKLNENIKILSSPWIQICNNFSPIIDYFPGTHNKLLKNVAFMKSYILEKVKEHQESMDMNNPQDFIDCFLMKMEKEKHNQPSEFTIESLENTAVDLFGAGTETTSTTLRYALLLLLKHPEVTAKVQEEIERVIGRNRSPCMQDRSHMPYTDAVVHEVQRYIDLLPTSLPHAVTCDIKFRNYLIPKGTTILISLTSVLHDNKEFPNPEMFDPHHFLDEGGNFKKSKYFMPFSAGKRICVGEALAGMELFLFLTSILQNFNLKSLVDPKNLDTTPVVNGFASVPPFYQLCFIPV
# Chain of UniProt P10635 (P10635 whole entry, looked up): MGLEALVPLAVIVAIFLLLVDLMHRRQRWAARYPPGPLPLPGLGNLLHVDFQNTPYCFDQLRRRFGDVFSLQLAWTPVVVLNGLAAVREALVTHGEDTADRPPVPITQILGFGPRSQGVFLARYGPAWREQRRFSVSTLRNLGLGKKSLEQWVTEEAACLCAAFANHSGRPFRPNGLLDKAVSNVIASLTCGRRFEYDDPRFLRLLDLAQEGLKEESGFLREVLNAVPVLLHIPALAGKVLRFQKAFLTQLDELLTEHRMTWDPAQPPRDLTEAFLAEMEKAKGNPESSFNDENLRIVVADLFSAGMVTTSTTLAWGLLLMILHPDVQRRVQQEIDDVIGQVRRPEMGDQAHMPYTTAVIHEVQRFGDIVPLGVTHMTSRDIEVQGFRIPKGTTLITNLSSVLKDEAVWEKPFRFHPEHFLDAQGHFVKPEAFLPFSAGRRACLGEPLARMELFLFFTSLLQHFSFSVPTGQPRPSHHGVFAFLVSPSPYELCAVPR
# Chain of UniProt O75469 (O75469 whole entry, looked up): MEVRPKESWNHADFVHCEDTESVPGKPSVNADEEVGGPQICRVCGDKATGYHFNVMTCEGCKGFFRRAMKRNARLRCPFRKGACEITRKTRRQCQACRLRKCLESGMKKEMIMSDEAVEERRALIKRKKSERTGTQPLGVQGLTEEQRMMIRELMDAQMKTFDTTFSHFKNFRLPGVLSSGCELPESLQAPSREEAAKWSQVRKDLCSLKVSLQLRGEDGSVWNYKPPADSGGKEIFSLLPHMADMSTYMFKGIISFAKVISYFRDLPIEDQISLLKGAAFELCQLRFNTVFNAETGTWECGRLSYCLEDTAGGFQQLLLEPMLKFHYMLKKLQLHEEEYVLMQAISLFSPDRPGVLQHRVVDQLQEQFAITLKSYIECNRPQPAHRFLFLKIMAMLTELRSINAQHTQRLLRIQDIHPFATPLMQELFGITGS
# Chain of UniProt P33261 (P33261 whole entry, looked up): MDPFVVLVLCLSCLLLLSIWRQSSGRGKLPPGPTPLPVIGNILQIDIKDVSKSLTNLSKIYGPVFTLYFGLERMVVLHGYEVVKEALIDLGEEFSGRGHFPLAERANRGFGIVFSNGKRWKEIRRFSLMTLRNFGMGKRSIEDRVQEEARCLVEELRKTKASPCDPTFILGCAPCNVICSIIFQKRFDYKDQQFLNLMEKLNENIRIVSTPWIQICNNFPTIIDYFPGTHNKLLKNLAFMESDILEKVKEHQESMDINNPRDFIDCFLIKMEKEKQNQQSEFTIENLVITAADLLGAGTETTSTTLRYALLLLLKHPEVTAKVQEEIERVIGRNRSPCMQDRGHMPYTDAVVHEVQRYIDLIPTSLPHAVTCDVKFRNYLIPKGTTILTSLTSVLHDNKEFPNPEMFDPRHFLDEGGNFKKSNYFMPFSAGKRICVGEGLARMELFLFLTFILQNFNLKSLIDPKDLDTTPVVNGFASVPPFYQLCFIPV
structure (smiles),measurement,setting,value
COc1ccc(-c2cc(=S)ss2)cc1,Potency,[1],"inconclusive: 2.11 µM [rising, full curve]"
same,Potency,[2],active: 15 µM
same,Potency,[3],"inconclusive: 33.5 µM [cytotoxic, partial curve, poor fit]"
same,Potency,[4],"inconclusive: 22.4 µM [activator, partial curve, poor fit]"
same,Potency,[5],"inconclusive: 34.7 µM [inhibitor, partial curve]"
CCOC(=O)c1ccc(C2CCC(NC[C@H](O)COc3ccc(O)c(NS(C)(=O)=O)c3)CC2)cc1 (some centres undefined),Potency,[1],"inconclusive: 63.3 µM [falling, single point]"
same,Potency,[2],"inconclusive: 63.3 µM [cytotoxic, single point]"
same,Potency,[6],"inconclusive: 22.6 µM [rising, partial curve]"
same,"activity, negative = inhibition",[7]; [16],inconclusive: -0.226%
same,Potency,[8],active: 56.4 µM
same,Potency,[9],"inconclusive: 63.3 µM [activator, single point]"
same,Potency,[10],inconclusive: 56.4 µM [cytotoxic]
same,Potency,[5],active: 58.4 µM
CCCCCCCCCCN,Potency,[1],inconclusive: 69 µM and inactive
same,Potency,[2],"inconclusive: 69 µM [cytotoxic, single point]"
same,Potency,[3],"inconclusive: 61.5 µM [cytotoxic, partial curve, poor fit]"
same,Potency,[11],"inconclusive: 35.8 µM [inhibitor, partial curve] and inconclusive: 35.6 µM [inhibitor, partial curve, poor fit]"
CC(C)[C@@H]1CC[C@@H](C)CC1=O,Potency,[1],"inconclusive: 77 µM [falling, single point]"
same,Potency,[2],"inconclusive: 0.969 µM [cytotoxic, single point]"
same,Potency,[3],"inconclusive: 68.6 µM [cytotoxic, single point]"
same,max activation,[4],inactive: -3.74%
O=C(O)CCC(=O)c1ccc(-c2ccccc2)cc1,Potency,[1],"inconclusive: 0.841 µM [falling, single point]"
same,Potency,[2],"inconclusive: 3.35 µM [cytotoxic, single point]"
same,Potency,[6],"inconclusive: 15.1 µM [rising, partial curve]"
same,Potency,[7]; [16],"inconclusive: 23.9 µM [fluorescent, partial curve]"
CCCCCCC,Potency,[1],"inconclusive: 0.0823 µM [rising, full curve, poor fit]"
same,Potency,[2],"inconclusive: 82.3 µM [cytotoxic, partial curve, poor fit]"
same,Potency,[3],"inconclusive: 29.2 µM [rising, partial curve]"
same,Potency,[10],inactive
same,Potency,[12],inactive
same,Potency,[13],"inconclusive: 60.3 µM [inhibitor, partial curve]"
CC(=O)OCC(=O)[C@@]1(OC(C)=O)[C@@H](C)C[C@H]2[C@@H]3C[C@H](F)C4=CC(=O)C=C[C@]4(C)[C@@]3(F)[C@@H](O)C[C@@]21C,"activity change, negative = inhibition",[1],inconclusive: -21.2% [at 42.5 µM]
same,Potency,[2],"inconclusive: 6.68 µM [rising, full curve]"
same,Potency,[6],"inconclusive: 21.3 µM [rising, single point]"
same,Potency,[14],inactive
same,Potency,[4],"inconclusive: 3.16 µM [activator, full curve, poor fit]"
C=C(C#N)C(=O)OCC,Potency,[1],"inconclusive: 68.5 µM [rising, single point]"
same,Potency,[2],"inconclusive: 9.68 µM [cytotoxic, full curve, poor fit]"
same,Potency,[15],"inconclusive: 19.5 µM [cytotoxic, partial curve, poor fit]"
same,Potency,[6],inactive
same,Potency,[10],inactive
same,Potency,[12],"inconclusive: 61.1 µM [activator, single point]"
same,Potency,[5],"inconclusive: 31.7 µM [inhibitor, partial curve]"
same,Potency,[11],inactive and active: 63.3 µM
CC(C)(C)CC(C)(C)c1ccc(OCCO)cc1,Potency,[1],active: 48.3 µM
same,Potency,[2],"inconclusive: 0.483 µM [rising, full curve]"
same,"activity, negative = inhibition",[7]; [16],inconclusive: -25.2%
same,Potency,[9],"inconclusive: 68.2 µM [activator, single point]"
same,Potency,[13],active: 79.2 µM
CC(=O)[C@@]1(O)CC[C@H]2[C@@H]3CCC4=CC(=O)CC[C@]4(C)[C@H]3CC[C@@]21C,"activity change, negative = inhibition",[1],inconclusive: 9.62%
same,Potency,[2],"inconclusive: 61.1 µM [rising, partial curve, poor fit]"
same,Potency,[6],"inconclusive: 24.5 µM [rising, partial curve]"
same,"activity, negative = inhibition",[7]; at 35.3 µM (top of the series),inconclusive: -1.36%
same,"activity, negative = inhibition",[7]; at 76.8 µM (top of the series),inconclusive: 0.212%

# From PubChem BioAssay (Tox21)
